US20190225675A1 (TUFTS UNIVERSITY, published 2019)

Molecular target: Clostridium difficile toxin A (TcdA) (Clostridium difficile)
Experiment: cell-based or functional assay

B1: VNA2-Tcd (VHH heterotetramer AH3/5D/E3/AA6) (other)
chain: [skipping about 100 residues]GSGSGHMHHHHHHSSGLVPRGSGMKETAAAKFERQHMDSPDLGTDDDDKAMAISDPNSGAPVPYPDPLEPRAAAQVQLVESGGGLVQPGGSLRLSCAASGFTLDYSSIGWFRQAPGKEREGVSCISSSGDSTKYADSVKGRFTTSRDNAKNTVYLQMNSLKPDDTAVYYCAAFRATMCGVFPLSPYGKDDWGKGTLVTVSSEPKTPKPQPTSAIAGGGGSGGGGSGGGGSAAAQLQLVESGGGLVQPGGSLRLSCEASGFTLDYYGIGWFRQPPGKEREAVSYISASARTILYADSVKGRFTISRDNAKNAVYLQMNSLKREDTAVYYCARRRFSASSVNRWLADDYDVWGRGTQVAVSSEPKTPKPQTSALVGGGGSGGGGSGGGGSLQAMAAAQVQLVESGGGLVQTGGSLRLSCASSGSIAGFETVTWSRQAPGKSLQWVASMTKTNNEIYSDSVKGRFIISRDNAKNTVYLQMNSLKPEDTGVYFCKGPELRGQGIQVTVSSEPKTPKPQAIAGGGGSGGGGSGGGGSLQGQVQLVESGGGLVQPGGSLRLSCAASGFTFSDYVMTWVRQAPGKGPEWIATINTDGSTMRDDSTKGRFTISRDNAKNTLYLQMTSLKPEDTALYYCARGRVISASAIRGAVRGPGTQVTVSSEPKTPKPQPARQGAPVPYPDPLEPRGGGSDICLPRWGCLWED
With B1 as the binder, how does the “IC50, cell-based neutralization (CT26 cell rounding)” value read?
The value was under 1 nM.
